# The supplement of paper PMC8728848
# This is one part of the list.
# B1: PitA (Streptococcus oralis), G3F8D8 (protein)
# chain: MNIRFDFKKVQIIARRLVTLLAILFLCAPISLLNADSTTEPQTTLHKTITPISGQDDKYELSLDITSKLGTETQTDPLDVVLVADLSGSMQNQDVQSFDGRTISRIDALKNTLRGTNGRKGLIDTILSNSNNRLSMVGFGGKIDNKKVDQYWDGNKWRLFRPYWPYERMTKYYDGVSPWDDANTILGWSNNARAAKTAVYNMSIAGGNSIGTESGIGTGTNIGAGLTLANQLMGSARSNAKKVVILLSDGFANMVYDANGYTIYNYNNEDPNIETAPQWFWDRLNNNLNSLSYSLAPTLDGFYSIKFRYSNNVDSITSLQYYMRQHNASIPNEIFSANDEDQLRDSFKDITDKILPLGIHHVSIKDVLSKYVQLLPNGSSEFRVVKEKDGSSEILIENQVTFDTKTTSEGLVEVTAKFSPNYSLEDGARYVLKFTVTSSQEALDAIAGDKKLEAGDAEGSDVNKLYSNKGASVTYSYGIGNSQTKTKEYSDNPTFKPSDPLTVPVEVEWQGVTGARTVITADQPSNVELKLVQKNKNGGSDNQDYRKTNVNVSKNVSNETRNFEKVAKGYQYDLIAPDVPAFTKEIKNVGTESKPSFKVIYKQLPSLTIKKVLEAENNLNKEFRIKVKLTSPDSKPLNGTFGEITVVNGEAEIRVEKRKRWEGILSYLPRGTHYKVEEEAASTNGYHVTYENQEGDLNKDETSIVTNHKLPSLSVTKKVTGVFANLLKSFKITINIRDAQNSPLNGTYTATVNNKRTPLQFTNGRASIDLNKDQTIKIYGLPLDSHYTVEEESNSSRGYQVSYENQEGKLDGDKSATVTNNKNSVPETGVDFLSSTLMLGIILPLGGIFFTILLGYLVVHRRK
# Experiments:
# Assay in all cases: glycan array binding signal (z-score within array); higher = stronger binding
# Conditions in all cases: glycan notation: IUPAC condensed, linker removed
# [1] = target: Neu5Ac(a2-3)Gal(b1-3)[Neu5Ac(a2-6)]GlcNAc(b1-3)[Fuc(a1-3)[Gal(b1-4)]GlcNAc(b1-6)]Gal(b1-4)Glc
# Outline: (§1)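 Glycan array data were curated from 3228 arrays in the Consortium for Functional Glycomics database and kept only where the protein sequence was available. Glycan names were converted to IUPAC-condensed notation, and columns mapping to the same glycan were averaged. The binding signal is a within-array Z-score, averaged across arrays of the same protein sequence at different concentrations or buffers and across linkers. Negative Z-scores can be read as non-binding.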
# Neu5Ac(a2-3)Gal(b1-4)Glc = target: Neu5Ac(a2-3)Gal(b1-4)Glc
# Outline: as §1
# [2] = target: Neu5Ac(a2-3)Gal(b1-4)GlcNAc
# Outline: as §1
# [3] = target: Neu5Ac(a2-3)Gal(b1-4)GlcNAc(b1-2)Man
# Outline: as §1
# [4] = target: Neu5Ac(a2-3)Gal(b1-4)GlcNAc(b1-2)Man(a1-3)[GlcNAc(b1-2)Man(b1-4)GlcNAc(b1-2)Man(a1-6)]Man(b1-4)GlcNAc(b1-4)GlcNAc
# Outline: as §1
# [5] = target: Neu5Ac(a2-3)Gal(b1-4)GlcNAc(b1-2)Man(a1-3)[Neu5Ac(a2-3)Gal(b1-4)GlcNAc(b1-2)Man(a1-6)]Man(b1-4)GlcNAc(b1-4)[Fuc(a1-6)]GlcNAc
# Outline: as §1
# [6] = target: Neu5Ac(a2-3)Gal(b1-4)GlcNAc(b1-2)Man(a1-3)[Neu5Ac(a2-6)Gal(b1-4)GlcNAc(b1-2)Man(a1-6)]Man(b1-4)GlcNAc(b1-4)GlcNAc
# Outline: as §1
# [7] = target: Neu5Ac(a2-3)Gal(b1-4)GlcNAc(b1-2)[Neu5Ac(a2-3)Gal(b1-4)GlcNAc(b1-6)]Man(a1-6)[Neu5Ac(a2-3)Gal(b1-4)GlcNAc(b1-2)Man(a1-3)]Man(b1-4)GlcNAc(b1-4)GlcNAc
# Outline: as §1
# [8] = target: Neu5Ac(a2-3)Gal(b1-4)GlcNAc(b1-3)Gal
# Outline: as §1
# [9] = target: Neu5Ac(a2-3)Gal(b1-4)GlcNAc(b1-3)Gal(b1-3)GlcNAc
# Outline: as §1
# [10] = target: Neu5Ac(a2-3)Gal(b1-4)GlcNAc(b1-3)Gal(b1-4)GlcNAc
# Outline: as §1
# [11] = target: Neu5Ac(a2-3)Gal(b1-4)GlcNAc(b1-3)Gal(b1-4)GlcNAc(b1-3)Gal(b1-4)GlcNAc
# Outline: as §1
# [12] = target: Neu5Ac(a2-3)Gal(b1-4)GlcNAc(b1-3)Gal(b1-4)[Fuc(a1-3)]GlcNAc
# Outline: as §1
# [13] = target: Neu5Ac(a2-3)Gal(b1-4)GlcNAc(b1-3)GalNAc
# Outline: as §1
# [14] = target: Neu5Ac(a2-3)Gal(b1-4)GlcNAc(b1-3)[Neu5Ac(a2-3)Gal(b1-4)GlcNAc(b1-6)]GalNAc
# Outline: as §1
# [15] = target: Neu5Ac(a2-3)Gal(b1-4)GlcNAc(b1-6)GalNAc
# Outline: as §1
# [16] = target: Neu5Ac(a2-3)Gal(b1-4)GlcNAc(b1-6)[Gal(b1-3)]GalNAc
# Outline: as §1
# [17] = target: Neu5Ac(a2-3)Gal(b1-4)GlcNAc(b1-6)[Neu5Ac(a2-3)Gal(b1-3)]GalNAc
# Outline: as §1
# [18] = target: Neu5Ac(a2-3)Gal(b1-4)GlcNAc6S
# Outline: as §1
# [19] = target: Neu5Ac(a2-3)Gal(b1-4)[Fuc(a1-3)]GlcNAc
# Outline: as §1
# [20] = target: Neu5Ac(a2-3)Gal(b1-4)[Fuc(a1-3)]GlcNAc(b1-3)Gal
# Outline: as §1
# [21] = target: Neu5Ac(a2-3)Gal(b1-4)[Fuc(a1-3)]GlcNAc(b1-3)Gal(b1-4)GlcNAc
# Outline: as §1
# [22] = target: Neu5Ac(a2-3)Gal(b1-4)[Fuc(a1-3)]GlcNAc(b1-3)Gal(b1-4)[Fuc(a1-3)]GlcNAc(b1-3)Gal(b1-4)[Fuc(a1-3)]GlcNAc
# Outline: as §1
# [23] = target: Neu5Ac(a2-3)Gal(b1-4)[Fuc(a1-3)]GlcNAc(b1-3)GalNAc
# Outline: as §1
# [24] = target: Neu5Ac(a2-3)Gal(b1-4)[Fuc(a1-3)]GlcNAc(b1-6)[Gal(b1-3)]GalNAc
# Outline: as §1
# [25] = target: Neu5Ac(a2-3)Gal(b1-4)[Fuc(a1-3)]GlcNAc6S
# Outline: as §1
# [26] = target: Neu5Ac(a2-3)Gal6S(b1-4)GlcNAc
# Outline: as §1
# [27] = target: Neu5Ac(a2-3)Gal6S(b1-4)[Fuc(a1-3)]GlcNAc
# Outline: as §1
# Neu5Ac(a2-3)GalNAc = target: Neu5Ac(a2-3)GalNAc
# Outline: as §1
# [28] = target: Neu5Ac(a2-3)GalNAc(b1-4)GlcNAc
# Outline: as §1
binder,measurement,setting,value
B1,glycan array binding signal (z-score),[1],-0.365
same,glycan array binding signal (z-score),Neu5Ac(a2-3)Gal(b1-4)Glc,-0.215
same,glycan array binding signal (z-score),[2],-0.61
same,glycan array binding signal (z-score),[3],1.17
same,glycan array binding signal (z-score),[4],-0.297
same,glycan array binding signal (z-score),[5],-0.163
same,glycan array binding signal (z-score),[6],-0.568
same,glycan array binding signal (z-score),[7],0.998
same,glycan array binding signal (z-score),[8],-0.503
same,glycan array binding signal (z-score),[9],-0.101
same,glycan array binding signal (z-score),[10],-0.543
same,glycan array binding signal (z-score),[11],-0.344
same,glycan array binding signal (z-score),[12],-0.408
same,glycan array binding signal (z-score),[13],-0.265
same,glycan array binding signal (z-score),[14],-0.318
same,glycan array binding signal (z-score),[15],-0.646
same,glycan array binding signal (z-score),[16],0.302
same,glycan array binding signal (z-score),[17],-0.542
same,glycan array binding signal (z-score),[18],-0.668
same,glycan array binding signal (z-score),[19],-0.518
same,glycan array binding signal (z-score),[20],-0.583
same,glycan array binding signal (z-score),[21],1.08
same,glycan array binding signal (z-score),[22],0.263
same,glycan array binding signal (z-score),[23],3.68
same,glycan array binding signal (z-score),[24],2.31
same,glycan array binding signal (z-score),[25],-0.492
same,glycan array binding signal (z-score),[26],-0.201
same,glycan array binding signal (z-score),[27],-0.322
same,glycan array binding signal (z-score),Neu5Ac(a2-3)GalNAc,-0.152
same,glycan array binding signal (z-score),[28],-0.515
